According to the supplement of paper PMC4967469:
The IC50 comes from the fitted curve, where viability falls to half of the control; a limit (>, <) means that the fit lies beyond the doses tested. AUC sums up the same curve from the lowest dose to the 256-fold higher top dose; values near 1 show little effect. The top dose, if marked as inferred, was calculated from the reported fits.

Compound: O=C1NC(=NCc2cccs2)S/C1=C\c1ccc2ncccc2c1 [RO-3306]
Experiment: Viability of human cancer cell lines after 72 h of drug (GDSC screen)
Conditions: top dose 5 µM; top dose inferred
Experimental: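 Human cancer cell lines in 384-well plates, medium with 10% serum, drug for 72 h over a 256-fold dose range (nine 2-fold or five 4-fold steps up to the top dose). Adherent lines were fixed and stained with the nucleic acid dye Syto60, suspension lines read with resazurin; signal relative to control wells, capped at 0 and 100%. One two-parameter sigmoid per drug and line, fitted in a mixed model over all curves with the slope shared within a line.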

| Cell Line | AUC | IC50 |
| --- | --- | --- |
| TE-15 (oesophagus, suspension) | 0.981 | > 5 µM |
| TGBC1TKB (biliary tract, adherent) | 0.961 | > 5 µM |
| TGBC11TKB (stomach, adherent) | 0.992 | > 5 µM |
| TGW (neuroblastoma, adherent) | 0.965 | > 5 µM |
| THP-1 (acute myeloid leukaemia, suspension) | 0.991 | > 5 µM |
| TK10 (kidney, adherent) | 0.97 | > 5 µM |
| TK (B-cell lymphoma, suspension) | 0.977 | > 5 µM |
| TMK-1 (stomach, adherent) | 0.972 | > 5 µM |
| TOV-21G (ovary, adherent) | 0.922 | > 5 µM |
| TOV-112D (ovary, adherent) | 0.943 | > 5 µM |
| TT2609-C02 (thyroid, adherent) | 0.95 | > 5 µM |
| TT (thyroid, adherent) | 0.978 | > 5 µM |
| TUR (B-cell lymphoma, suspension) | 0.987 | > 5 µM |
| TYK-nu (ovary, adherent) | 0.962 | > 5 µM |
| U031 (kidney, adherent) | 0.936 | > 5 µM |
| U-87-MG (glioma, adherent) | 0.981 | > 5 µM |
| U-118-MG (glioma, adherent) | 0.984 | > 5 µM |
| U-266 (myeloma, semi-adherent) | 0.972 | > 5 µM |
| U-698-M (B-cell leukaemia, suspension) | 0.955 | > 5 µM |
| UACC-62 (melanoma, adherent) | 0.955 | > 5 µM |
| UACC-257 (melanoma, adherent) | 0.979 | > 5 µM |
| UACC-893 (breast, adherent) | 0.979 | > 5 µM |

| Cell Line | AUC | IC50 |
| --- | --- | --- |
| UWB1.289 (ovary, adherent) | 0.962 | > 5 µM |
| VA-ES-BJ (soft tissue, adherent) | 0.959 | > 5 µM |
| VAL (B-cell lymphoma, suspension) | 0.979 | > 5 µM |
| VCaP (prostate, adherent) | 0.975 | > 5 µM |
| VM-CUB-1 (bladder, adherent) | 0.916 | > 5 µM |
| VMRC-LCD (lung adenocarcinoma, adherent) | 0.949 | > 5 µM |
| VMRC-RCZ (kidney, adherent) | 0.972 | > 5 µM |
| WIL2-NS (lymphoid neoplasm, suspension) | 0.987 | > 5 µM |
| WM35 (melanoma, adherent) | 0.885 | > 5 µM |
| WM793B (melanoma, adherent) | 0.979 | > 5 µM |
| WM1552C (melanoma, adherent) | 0.988 | > 5 µM |
| WM-115 (melanoma, adherent) | 0.957 | > 5 µM |
| WSU-DLCL2 (B-cell lymphoma, suspension) | 0.99 | > 5 µM |
| WSU-NHL (lymphoid neoplasm, suspension) | 0.983 | > 5 µM |
| YAPC (pancreas, adherent) | 0.982 | > 5 µM |
| YH-13 (glioma, adherent) | 0.88 | > 5 µM |
| YKG-1 (glioma, adherent) | 0.941 | > 5 µM |
| YT (lymphoid neoplasm, suspension) | 0.974 | > 5 µM |
| ZR-75-30 (breast, adherent) | 0.967 | > 5 µM |
| huH-1 (liver, adherent) | 0.951 | > 5 µM |
| no-11 (glioma, adherent) | 0.982 | > 5 µM |
